Among all 110,000 compounds or so, about 230 (0.21%) showed an effect of 50% or more. The list shows a part of the results.
Each compound was assayed against DPAP1 (Plasmodium falciparum, UniProt Q8IIJ9) (assay: primary screen, percent inhibition; read by cleavage of a fluorogenic dipeptide substrate; higher = more effect of the substance).
Design: species or system P. falciparum D10 trophozoite lysates; single well
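Also: 30 min substrate incubation versus DMSO and 10 µM JCP410 controls.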

Sequence of DPAP1 (Q8IIJ9 whole entry, looked up): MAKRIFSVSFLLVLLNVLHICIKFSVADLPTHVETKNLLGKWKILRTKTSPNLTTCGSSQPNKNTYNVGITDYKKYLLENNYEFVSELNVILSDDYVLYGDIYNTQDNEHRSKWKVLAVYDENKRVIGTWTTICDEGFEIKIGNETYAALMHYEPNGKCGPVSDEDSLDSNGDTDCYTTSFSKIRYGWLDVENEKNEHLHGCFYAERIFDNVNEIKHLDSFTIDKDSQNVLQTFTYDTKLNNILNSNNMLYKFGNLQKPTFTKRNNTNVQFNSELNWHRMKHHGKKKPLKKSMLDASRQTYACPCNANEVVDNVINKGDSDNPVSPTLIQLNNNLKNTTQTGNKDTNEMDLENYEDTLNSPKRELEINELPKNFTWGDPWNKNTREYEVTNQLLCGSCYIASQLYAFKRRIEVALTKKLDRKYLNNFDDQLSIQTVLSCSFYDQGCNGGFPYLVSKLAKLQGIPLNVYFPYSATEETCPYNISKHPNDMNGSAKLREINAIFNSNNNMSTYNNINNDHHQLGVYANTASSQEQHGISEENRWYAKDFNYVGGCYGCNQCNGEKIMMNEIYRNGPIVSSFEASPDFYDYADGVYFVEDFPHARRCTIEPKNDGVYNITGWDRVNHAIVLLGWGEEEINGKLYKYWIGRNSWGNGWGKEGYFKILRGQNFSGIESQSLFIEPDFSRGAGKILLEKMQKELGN

Compound	% Inhibition @ 10 uM [%]
N#CC(=C1CCCCC1)c1nc(-c2ccc(-c3ccccc3)cc2)cs1	-0.216
Cc1nc2nc(CNC(=O)OC(C)(C)C)nn2c(C)c1CCC(=O)N1CCOCC1	5.91
O=[N+]([O-])c1ccc(S(=O)(=O)n2cnc3ccccc32)cc1	2.81
CCOC(=O)c1sc(NC(=O)c2ccccc2OCC)c(C(=O)OCC)c1C	5.22
Cc1nn2c3c(cnc2c1-c1ccccc1)C(=O)CC(C)(C)C3	-2.75
CCCNC(=O)C1CCN(S(=O)(=O)c2c(C)cc(C)cc2C)CC1	-11
COc1ccc(-c2noc(CN3CCCC(C(=O)NC4CCCCC4)C3)n2)cc1OC (centres unmarked)	-0.495
Cn1ncc2c(=O)n(Cc3ccc(C#N)cc3)cnc21	-2.41
CCc1cc2c(=O)n(CC(=O)O)cnc2s1	2.24
CCc1nn2cc(-c3cccc(Br)c3)nc2s1	-2.71
O=c1cc(O)nc2sc(C3CCCCC3)nn12	2.65
COc1ccccc1NC(=O)C(C)Oc1ccccc1 (centres unmarked)	0.843
CCOC(=O)c1sc2ccccc2c1Cl	-4.35
COc1ccc2c(c1)C(C)=CC(C)(C)N2S(=O)(=O)c1ccc(C)cc1	-2.51
COc1cccc(C2C(C(=O)c3cc4ccccc4o3)=C(O)C(=O)N2CCN2CCOCC2)c1 (centres unmarked)	-16.4
COCc1nnc(NC(=O)/C=C/c2ccc3c(c2)OCO3)s1	1.91
CCOC(=O)c1[nH]c2c(c1-c1ccccc1)C(=O)CC(c1ccccc1)C2 (centres unmarked)	-3.21
CC(=O)N1CCC(NC23CC4CC(CC(C4)C2)C3)CC1	-0.0648
N#Cc1ccccc1C(=O)Nc1ccccc1N	5.92
Cc1c(Cl)cccc1NC(=O)Cc1ccc(-c2ccccc2)cc1	0.467
NCc1cccc(C(=O)N[C@@H](Cc2ccc3ccccc3c2)C(=O)N[C@@H](CCc2ccccc2)C(=O)COc2ccccc2)c1	-2.35
O=C(CN1C(=O)c2ccccc2S1(=O)=O)NCCc1ccccc1	6.97
CCOc1ccc(C(=O)Nc2cccc(C)n2)cc1	-5.34
CN1CCc2c1nc1ccc(Br)cc1c2N	-3.16
OC1(c2ccccc2)c2ccccc2N=C2CCCCCN21 (centres unmarked)	0.0285

Compound	% Inhibition @ 10 uM [%]
CCc1ccc(OCC(=O)N2CCN(C(=O)COc3ccc(CC)cc3)CC2)cc1	-2.15
C=CCn1c(=O)/c(=C2/Sc3ccc(OC)cc3N2CC)s/c1=C1/C(=O)NN=C1C	0.687
COc1cc(/C=c2\sc3ncnn3c2=O)ccc1OCCC(C)C	-3.06
O=C1CC(c2ccccc2F)c2c(O)nc3ncnn3c2N1 (centres unmarked)	-0.0678
Cn1c(=O)c2c(nc(SCC(=O)N3CCOCC3)n2Cc2ccccc2Cl)n(C)c1=O	-6.38
COc1ccc2c(c1)c1c(c3ccccc3n1OS(=O)(=O)c1ccc(C)cc1)n2C	9.19
Cc1ccc(S(=O)(=O)N(CC(=O)Nc2ccccc2C)c2ccc(F)cc2)cc1	-6.89
Cc1nnc(N2CCCC(C(=O)N(C)Cc3ccccc3)C2)c2nn(-c3ccc(Cl)cc3)c(C)c12 (centres unmarked)	6
Cc1cc(C)c2c(O)nc(SCC(=O)c3ccc(O)c(O)c3)nc2n1	-8.35
COc1ccc(-c2cn3c(n2)sc2cc(C(=O)NCCCN4CCc5ccccc5C4)ccc23)cc1	9.08
Cc1cc(C)c(C#N)c(SCC(=O)N(Cc2ccccc2)Cc2ccccc2)n1	0.686
COc1ccc(CN2CCN(Cc3ccc(C)cc3)CC2)cc1	3.7
CCOc1ccccc1NC(=O)C1=C(C)NC(=O)NC1c1ccc(OC)c(OC)c1 (centres unmarked)	-3.97
CCc1nn(C(C)C(=O)NCCc2c[nH]c3ccccc23)c(=O)c2cc3occc3n12 (centres unmarked)	-0.281
NCCCCCCNC(=O)c1c(O)nc2c(c1O)CCCC2	-9.62
O=C(Nc1ccccc1)Nc1ccccc1C#Cc1ccccc1	-5.94
COc1ccc(CNC23CC4CC(CC(C4)C2)C3)c2ccccc12	-2.91
Cc1cccc(-c2noc(CN(C(=O)COc3ccccc3C)C(C)C)n2)c1	1.94
Cn1c(=O)c2c(-c3ccccc3Cl)n(-c3ccccc3)cc2n(C)c1=O	3.62
CCSc1nnc(NC(=O)CSc2nnc(Cc3cccn3C)n2Cc2ccccc2)s1	-1.3
Cc1ccc2c(c1)cc1c(=O)n(CC(=O)N3CCOCC3)nc(C)n12	-3.47
CC1=C(c2ccc(C)c(C)c2)S(=O)(=O)N=C1N1CCC(C(=O)NCCN2CCCCC2C)CC1 (centres unmarked)	2.65
Nc1ncnc2oc(-c3ccccc3)c(-c3ccccc3)c12	4.44
Cc1cc(C)c2c(O)n(-c3ccccc3)nc2n1	-1.86
COc1cc(OC)cc(C(=O)NCc2ccc3c(c2)OCO3)c1	-3.33

From publication PMC6919601, “Identification of Plasmodium dipeptidyl aminopeptidase allosteric inhibitors by high throughput screening” (PLoS ONE, 2019)
